Results on twelve substances are retold here after publication PMC11714167.

Chains of the proteins cited; added tags and fusions are not shown. Lines headed by an entry give the natural chain unless they say otherwise; changes in a name come on top. Residues count along the entry.
UniProt P19474: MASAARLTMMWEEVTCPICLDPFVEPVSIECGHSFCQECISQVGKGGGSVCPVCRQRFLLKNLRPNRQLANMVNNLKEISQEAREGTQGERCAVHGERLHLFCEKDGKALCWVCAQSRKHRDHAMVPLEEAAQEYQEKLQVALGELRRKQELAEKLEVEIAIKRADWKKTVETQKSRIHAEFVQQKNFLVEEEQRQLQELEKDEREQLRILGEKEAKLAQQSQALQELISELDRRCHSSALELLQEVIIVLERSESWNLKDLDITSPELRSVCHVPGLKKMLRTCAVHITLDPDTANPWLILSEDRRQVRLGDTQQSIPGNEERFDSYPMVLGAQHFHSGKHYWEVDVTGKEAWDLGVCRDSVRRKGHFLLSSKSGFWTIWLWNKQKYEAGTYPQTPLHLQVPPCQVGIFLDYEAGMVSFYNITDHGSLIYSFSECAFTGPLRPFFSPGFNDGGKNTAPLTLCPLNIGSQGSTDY
UniProt P30530: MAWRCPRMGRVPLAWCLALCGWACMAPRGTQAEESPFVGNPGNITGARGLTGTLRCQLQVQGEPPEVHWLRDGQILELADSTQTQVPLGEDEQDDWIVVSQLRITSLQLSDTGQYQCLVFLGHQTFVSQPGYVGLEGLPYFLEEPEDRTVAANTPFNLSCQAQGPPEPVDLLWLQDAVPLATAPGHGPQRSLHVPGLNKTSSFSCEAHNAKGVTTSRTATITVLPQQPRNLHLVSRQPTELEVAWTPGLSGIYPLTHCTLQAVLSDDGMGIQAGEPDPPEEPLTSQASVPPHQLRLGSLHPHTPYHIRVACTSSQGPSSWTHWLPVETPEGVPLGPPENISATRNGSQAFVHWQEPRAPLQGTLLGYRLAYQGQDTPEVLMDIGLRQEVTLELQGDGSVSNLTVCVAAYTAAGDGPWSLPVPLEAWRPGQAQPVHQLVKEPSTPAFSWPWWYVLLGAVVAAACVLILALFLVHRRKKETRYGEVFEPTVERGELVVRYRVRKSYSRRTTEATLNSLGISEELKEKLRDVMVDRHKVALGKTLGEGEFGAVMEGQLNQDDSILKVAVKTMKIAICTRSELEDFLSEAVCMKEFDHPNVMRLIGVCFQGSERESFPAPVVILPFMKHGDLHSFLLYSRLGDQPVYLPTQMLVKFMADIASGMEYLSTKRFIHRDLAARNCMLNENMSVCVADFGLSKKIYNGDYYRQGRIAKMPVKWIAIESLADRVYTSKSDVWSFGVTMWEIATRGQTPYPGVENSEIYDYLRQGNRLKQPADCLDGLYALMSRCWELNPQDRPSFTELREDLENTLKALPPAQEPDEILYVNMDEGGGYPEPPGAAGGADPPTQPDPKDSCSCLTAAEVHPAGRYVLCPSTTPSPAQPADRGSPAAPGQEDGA
AXL (endogenous) (human (endogenous in 786-O, 769-P, Caki-1)): residues 26-894 of P30530
UniProt O14964: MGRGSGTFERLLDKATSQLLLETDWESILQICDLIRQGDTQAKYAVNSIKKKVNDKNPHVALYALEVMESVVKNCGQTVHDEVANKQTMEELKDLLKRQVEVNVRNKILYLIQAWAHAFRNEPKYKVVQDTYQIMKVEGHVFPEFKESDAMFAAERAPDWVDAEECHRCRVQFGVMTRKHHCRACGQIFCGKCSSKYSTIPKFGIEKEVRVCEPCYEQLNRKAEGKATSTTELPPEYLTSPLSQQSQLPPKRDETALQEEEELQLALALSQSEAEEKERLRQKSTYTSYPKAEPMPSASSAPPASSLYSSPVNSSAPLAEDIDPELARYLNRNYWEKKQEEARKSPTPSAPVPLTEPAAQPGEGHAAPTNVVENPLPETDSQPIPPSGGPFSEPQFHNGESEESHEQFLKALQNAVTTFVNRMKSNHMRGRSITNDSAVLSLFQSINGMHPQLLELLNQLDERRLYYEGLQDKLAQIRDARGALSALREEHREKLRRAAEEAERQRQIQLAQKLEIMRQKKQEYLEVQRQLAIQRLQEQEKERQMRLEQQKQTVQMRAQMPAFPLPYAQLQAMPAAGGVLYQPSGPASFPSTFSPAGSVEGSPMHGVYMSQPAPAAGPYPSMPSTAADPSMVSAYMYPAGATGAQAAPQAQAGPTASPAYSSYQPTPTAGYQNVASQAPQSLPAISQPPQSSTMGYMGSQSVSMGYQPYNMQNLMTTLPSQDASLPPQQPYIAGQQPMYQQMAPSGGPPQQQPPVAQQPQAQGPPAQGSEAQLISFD
UniProt Q9Y6K9: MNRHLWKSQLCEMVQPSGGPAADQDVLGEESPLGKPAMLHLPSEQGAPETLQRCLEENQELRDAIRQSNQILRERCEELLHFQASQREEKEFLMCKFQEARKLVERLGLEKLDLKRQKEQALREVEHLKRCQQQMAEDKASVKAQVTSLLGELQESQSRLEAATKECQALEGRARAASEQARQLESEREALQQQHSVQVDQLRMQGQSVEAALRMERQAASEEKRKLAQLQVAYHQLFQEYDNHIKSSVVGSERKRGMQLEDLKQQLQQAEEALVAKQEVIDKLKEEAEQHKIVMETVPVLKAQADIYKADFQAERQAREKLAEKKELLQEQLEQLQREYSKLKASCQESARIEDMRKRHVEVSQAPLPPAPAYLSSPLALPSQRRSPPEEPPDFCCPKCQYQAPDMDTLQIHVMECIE
UniProt Q92783: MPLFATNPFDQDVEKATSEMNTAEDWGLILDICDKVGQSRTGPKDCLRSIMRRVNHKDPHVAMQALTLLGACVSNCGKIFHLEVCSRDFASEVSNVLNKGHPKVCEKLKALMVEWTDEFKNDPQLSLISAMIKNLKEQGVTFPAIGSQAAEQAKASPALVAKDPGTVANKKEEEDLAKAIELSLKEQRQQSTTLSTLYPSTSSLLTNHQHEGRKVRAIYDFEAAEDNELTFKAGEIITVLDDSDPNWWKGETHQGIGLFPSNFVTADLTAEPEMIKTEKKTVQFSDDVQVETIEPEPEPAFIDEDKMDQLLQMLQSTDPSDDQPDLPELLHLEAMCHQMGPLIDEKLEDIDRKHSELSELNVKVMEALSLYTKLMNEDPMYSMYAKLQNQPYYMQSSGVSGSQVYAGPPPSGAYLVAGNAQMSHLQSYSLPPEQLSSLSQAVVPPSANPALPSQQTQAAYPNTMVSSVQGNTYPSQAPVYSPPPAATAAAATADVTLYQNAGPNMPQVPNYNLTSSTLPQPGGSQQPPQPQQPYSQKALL
UniProt O00463: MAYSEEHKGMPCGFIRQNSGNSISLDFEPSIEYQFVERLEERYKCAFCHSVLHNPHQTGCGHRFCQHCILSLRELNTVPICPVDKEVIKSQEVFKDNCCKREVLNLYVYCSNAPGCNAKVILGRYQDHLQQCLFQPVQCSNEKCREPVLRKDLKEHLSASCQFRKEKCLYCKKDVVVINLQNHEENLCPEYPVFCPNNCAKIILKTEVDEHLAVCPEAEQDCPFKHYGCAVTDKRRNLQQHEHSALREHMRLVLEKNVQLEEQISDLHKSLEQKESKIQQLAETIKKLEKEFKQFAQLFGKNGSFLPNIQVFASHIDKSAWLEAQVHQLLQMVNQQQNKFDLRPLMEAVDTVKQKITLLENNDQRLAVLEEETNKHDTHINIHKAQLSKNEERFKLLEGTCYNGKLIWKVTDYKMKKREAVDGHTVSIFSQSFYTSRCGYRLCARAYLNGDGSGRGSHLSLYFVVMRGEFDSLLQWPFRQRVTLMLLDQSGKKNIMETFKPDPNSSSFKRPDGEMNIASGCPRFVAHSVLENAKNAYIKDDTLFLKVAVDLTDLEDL

Assay [1] addresses GST-TRIM21 (human) (UniProt P19474). The experiment in a line: pull-down; purified GST or GST-tagged recombinant protein bound to GST beads, incubated with KIRC (786-O) cell lysates; washed five times with GST buffer (1 mM EDTA, pH 8.0 Tris-HCl, 200 mM NaCl, 1% Triton X-100); immunoblotting; only the target purified. In general terms: Immunoblotting shows a protein as a band on a membrane.

In assay [2] the target is T1, STAM Binding Protein Like 1 (endogenous) (human (endogenous in 786-O, 769-P, Caki-1)) (UniProt Q96FJ0).
T1 sequence: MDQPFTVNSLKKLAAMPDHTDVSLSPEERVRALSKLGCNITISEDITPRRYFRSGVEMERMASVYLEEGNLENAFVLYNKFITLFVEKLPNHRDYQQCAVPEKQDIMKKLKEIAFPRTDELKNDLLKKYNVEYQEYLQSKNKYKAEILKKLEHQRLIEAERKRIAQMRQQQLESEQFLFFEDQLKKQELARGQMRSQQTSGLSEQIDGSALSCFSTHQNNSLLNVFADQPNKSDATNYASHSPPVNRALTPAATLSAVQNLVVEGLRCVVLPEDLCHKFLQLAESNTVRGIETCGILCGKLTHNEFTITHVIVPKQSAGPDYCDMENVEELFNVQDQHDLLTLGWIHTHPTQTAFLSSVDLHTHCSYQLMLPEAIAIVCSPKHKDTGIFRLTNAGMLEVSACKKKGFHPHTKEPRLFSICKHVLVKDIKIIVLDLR
The experiment in a line: co-IP; endogenous proteins; whole-cell extracts of KIRC cell lines (786-O, 769-P, Caki-1) immunoprecipitated with specific antibody or control IgG, protein A/G beads, washed four times with lysis buffer (20 mM Tris-HCl, 125 mM NaCl, 5 mM MgCl2, 0.2 mM EDTA, 0.1% NP-40); STAMBPL1/AXL also after Gas6 (500 ng/mL, 6 h), unaffected; AXL with HRS, STAM1, STAM2 stronger with K63-ubiquitin overexpression, STAMBPL1 KD or TRIM21 overexpression.

Assay [3] addresses full length TRIM21 (tagged, HEK293T) (human) (UniProt P19474). Briefly: co-IP; HEK293T cells co-transfected with tagged constructs (full length or deletion mutants); IP with Flag antibody and protein A/G beads; immunoblotting.
Assay [4] addresses T2, STAMBPL1-USP8_dimer (human) (UniProt Q96FJ0).
T2 sequence: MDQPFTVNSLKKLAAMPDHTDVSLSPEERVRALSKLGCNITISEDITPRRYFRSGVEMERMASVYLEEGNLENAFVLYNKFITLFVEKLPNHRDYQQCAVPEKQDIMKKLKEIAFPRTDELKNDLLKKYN
Briefly: co-IP; AXL deletion mutants (AXL-ΔIC, AXL-ΔEC+TM) with STAMBPL1-USP8_dimer (Figure S12B) or the TRIM21 PRY-SPRY domain (Figure S16B); cells and tags not given.

The target in assay [5] is T3, GST-STAMBPL1 (human) (UniProt Q96FJ0).
T3 sequence: T1 sequence
The experiment in a line: pull-down; purified GST or GST-tagged recombinant protein bound to GST beads, incubated with KIRC (786-O) cell lysates; washed five times with GST buffer (1 mM EDTA, pH 8.0 Tris-HCl, 200 mM NaCl, 1% Triton X-100); immunoblotting; only the target purified.

Assay [6] concerns the target AXL (exogenous, Figure S10B) (human) (UniProt P30530). The experiment in a line: co-IP; exogenous co-IP of AXL with HRS, STAM1 and STAM2 (Figure S10B); cells and tags not given.
For assay [7], the target named is T4, Flag-tagged full length STAMBPL1 (HEK293T) (human) (UniProt Q96FJ0).
T4 sequence: T1 sequence
Briefly: co-IP; HEK293T cells co-transfected with tagged constructs (full length or deletion mutants); IP with Flag antibody and protein A/G beads; immunoblotting.

The target of assay [8] is T5, STAMBPL1-ΔJAB (human) (UniProt Q96FJ0).
T5 sequence: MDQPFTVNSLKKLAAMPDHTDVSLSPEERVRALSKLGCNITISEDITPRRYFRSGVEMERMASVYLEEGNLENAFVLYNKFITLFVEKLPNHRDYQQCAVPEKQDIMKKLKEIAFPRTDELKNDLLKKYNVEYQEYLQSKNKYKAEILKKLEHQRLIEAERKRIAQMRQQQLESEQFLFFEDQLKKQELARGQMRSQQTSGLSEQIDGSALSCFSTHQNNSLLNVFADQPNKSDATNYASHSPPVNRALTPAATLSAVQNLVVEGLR
Described as above.

Assay [9] has as its target T6, STAMBPL1-ΔUJ_linker (human) (UniProt Q96FJ0).
T6 sequence: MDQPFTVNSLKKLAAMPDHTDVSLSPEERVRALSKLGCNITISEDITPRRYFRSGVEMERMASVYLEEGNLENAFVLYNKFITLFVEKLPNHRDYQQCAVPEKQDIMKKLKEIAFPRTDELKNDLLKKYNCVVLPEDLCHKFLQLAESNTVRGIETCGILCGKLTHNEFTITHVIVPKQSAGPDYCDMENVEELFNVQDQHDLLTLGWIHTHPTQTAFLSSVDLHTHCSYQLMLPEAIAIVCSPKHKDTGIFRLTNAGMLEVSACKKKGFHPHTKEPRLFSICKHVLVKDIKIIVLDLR
The assay is described as above.

Assay [10] has as its target AXL (endogenous) (human (endogenous in 786-O, 769-P, Caki-1)) (UniProt P30530). The experiment in a line: co-IP; endogenous proteins; whole-cell extracts of KIRC cell lines (786-O, 769-P, Caki-1) immunoprecipitated with specific antibody or control IgG, protein A/G beads, washed four times with lysis buffer (20 mM Tris-HCl, 125 mM NaCl, 5 mM MgCl2, 0.2 mM EDTA, 0.1% NP-40); STAMBPL1/AXL also after Gas6 (500 ng/mL, 6 h), unaffected; AXL with HRS, STAM1, STAM2 stronger with K63-ubiquitin overexpression, STAMBPL1 KD or TRIM21 overexpression.

Assay [11] has the same target. The experiment in a line: co-IP; co-IP of AXL with NF-κB signalling proteins (Figure S24A,B) and of AKT with IKKα (Figure S24D); cells not given.
The target is the same in assay [12]. The experiment in a line: co-IP; co-IP of TRIM21 with endogenous AXL in 786-O cells transfected with empty vector or Flag-tagged STAMBPL1 vector; conversely STAMBPL1 KD (Figure S18F).

Results are given in words; binding and its absence hold for the method and conditions named. In cells and extracts the contact can be indirect. Some entries that bind do so weakly or less than the wild type. For some of these results: Where a sequence is shown, tags or fusion partners need not be part of it.

For “AXL (endogenous) (from UniProt P30530 26-894) (receptor)”, the binding entry in [1] and in assay [2] was “binds” throughout.

Consider “AXL (tagged, full length, HEK293T, Figure 4G) (from UniProt P30530 26-894) (receptor)”, for which, in assay [3], the binding entry is recorded as “binds”.

For the substance “AXL-ΔIC (from UniProt P30530 26-473) (domain or fragment)”, in assay [4], the binding entry is given as “no binding”.

Consider “Flag-AXL (ectopic in 786-O cells) (from UniProt P30530 26-894) (receptor)”, for which, in assay [5], the binding result is recorded as “binds”.

Take Flag-HRS (from UniProt O14964 1-777): the binding result in assay [6] is given as “binds”.

Regarding “HA-AXL (HEK293T) (from UniProt P30530 26-894) (receptor)”, the binding entry in assay [7], in assay [8] and in assay [9] was “binds” throughout.

Turning to “HRS (endogenous) (from UniProt O14964 1-777)”, the binding result in [10] is on record as “binds”.

On to NEMO (from UniProt Q9Y6K9 1-419), for which, in assay [11], the binding result is “no binding”.

Regarding “STAM1 (endogenous) (from UniProt Q92783 1-540)”, in [10], the binding result is listed as “binds”.

Regarding “STAM1 (exogenous) (from UniProt Q92783 1-540)”, in assay [6], the binding entry was “binds”.

On to TRAF5 (from UniProt O00463 1-557), for which the binding result in assay [11] is listed as “no binding”.

Consider “TRIM21 (endogenous) (from UniProt P19474 1-475) (enzyme)”, for which the binding entry in assay [12] and in assay [10] was “binds” throughout.
